In the supplement of paper PMC3334620:
Whole data set: some 33,000 sequences, median “E-score (-0.5 to 0.5)” near -0.021, cut for the highest 2% near 0.32. This is one part of the list.

target: T1, Zap1 (UniProt P47043); experiment: PBM E-score (8-mer binding enrichment) (E-score (-0.5 to 0.5)); higher = stronger / more preferred TF binding; most listed sequences are background and not binding sites; details: protein concentration: 200 nM; construct: GST-full length
T1 sequence: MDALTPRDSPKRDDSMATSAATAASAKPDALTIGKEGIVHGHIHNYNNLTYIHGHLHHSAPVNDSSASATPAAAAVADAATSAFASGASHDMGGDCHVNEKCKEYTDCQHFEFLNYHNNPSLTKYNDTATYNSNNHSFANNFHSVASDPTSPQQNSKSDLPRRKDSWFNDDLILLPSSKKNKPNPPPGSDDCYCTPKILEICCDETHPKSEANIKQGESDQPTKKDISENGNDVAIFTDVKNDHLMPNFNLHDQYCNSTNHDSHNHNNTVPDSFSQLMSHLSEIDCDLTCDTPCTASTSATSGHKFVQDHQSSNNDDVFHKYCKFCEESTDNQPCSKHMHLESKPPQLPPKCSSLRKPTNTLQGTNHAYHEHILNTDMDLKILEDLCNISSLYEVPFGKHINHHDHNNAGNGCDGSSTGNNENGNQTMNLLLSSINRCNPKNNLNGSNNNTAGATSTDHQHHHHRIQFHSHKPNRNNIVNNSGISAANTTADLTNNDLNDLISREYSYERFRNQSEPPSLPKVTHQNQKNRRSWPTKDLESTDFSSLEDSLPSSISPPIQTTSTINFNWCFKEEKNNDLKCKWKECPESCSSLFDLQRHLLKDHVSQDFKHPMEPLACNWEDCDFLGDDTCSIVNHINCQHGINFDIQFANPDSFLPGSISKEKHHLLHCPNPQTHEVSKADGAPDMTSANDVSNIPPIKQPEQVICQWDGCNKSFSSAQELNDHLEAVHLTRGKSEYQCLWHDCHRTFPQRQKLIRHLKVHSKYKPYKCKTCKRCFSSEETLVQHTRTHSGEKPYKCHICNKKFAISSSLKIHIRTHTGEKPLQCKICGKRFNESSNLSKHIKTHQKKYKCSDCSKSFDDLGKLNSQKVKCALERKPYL
Summary of the method: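 Universal all-10-mer Agilent arrays, fresh or stripped once, were converted to double-stranded form by primer extension. GST-tagged yeast transcription factors from PURExpress in vitro transcription/translation, full-length or DNA-binding domain only, were applied at about 100-200 nM and detected with fluorescent anti-GST. After masliner normalisation, the Universal PBM Analysis Suite scored each ungapped eight-base word together with its reverse complement by E-score.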

Sequence	PBM E-score
CCTCAAAG	0.0989
AGGGTCGA	0.225
AGCAGTGA	0.0404
AACTGTCT	-0.105
CCGTTTAG	0.0155
ATGGTGGA	-0.244
GCTGGTCA	0.0223
ATATGCAG	-0.25
CTTCACAA	-0.0479
ACGGTGAC	-0.0408
ATCGACAC	0.107
CCACGCTC	-0.231
ACAATGAG	-0.0379
GCGAAGTA	-0.128
ACCGGGGC	-0.0198
CACGGTGG	0.0955
AAGCGGAC	-0.0202
GACCGCGC	0.0705
AACCGCTT	0.31
ATTCGCTG	-0.149
ATCGGGAG	-0.201
CGAGAAAC	0.0891
ACGTTTGC	-0.261
ACAGACAT	-0.082
ACCAATCA	0.0786

Sequence	PBM E-score
GTCTTTCA	-0.0688
AGGGCCCG	-0.23
TACCATGA	0.12
CTGATAAG	0.056
ACACTTTA	0.00496
CCGTCATA	0.00745
CAATTAGC	-0.0997
ACGTCGAT	0.00438
ACTAACTC	-0.137
AGACGGGA	-0.349
ATTCTCCA	-0.00761
ACTTGTCT	-0.059
CCACGCCC	-0.149
CCCCCACA	-0.257
CTGCCGAC	-0.0995
AAATCAGA	0.0562
ACATAAAA	0.107
CAACCTGG	0.111
CCCCGGAA	-0.0761
AACAGTGG	0.0381
ATCTTTCG	-0.0476
CCTACCCC	-0.0627
GATAGTAC	0.189
TCACGCAA	0.0552
CGTCACTC	-0.0793

Sequence	PBM E-score
AGGGGCTA	-0.0271
CGTGCCAA	-0.164
AGTGGTGG	0.117
CCCTGTTA	0.277
GGCGGCAC	-0.122
GAGCTGTA	-0.244
CATGTGCG	-0.0899
AAATAAAT	0.256
TATAGATA	0.0707
CTGGGTCA	0.143
ACCTATAC	0.249
ATTCAACG	0.0478
ATTGTAAA	0.167
ATGGACTC	-0.0765
GGGGCAAC	-0.0672
GGCCTGCA	-0.285
ATACTTAG	0.107
AGTTTTCG	0.148
CCCTCATA	0.0732
CTAAACGC	0.0433
GCATGGGC	-0.0783
ATTTCTGA	0.0932
TACCACCA	0.235
AAGCCCCC	-0.357
AGACTAAC	0.0944

Sequence	PBM E-score
ACCGTAAC	0.331
AACCAGAT	0.142
CGGGTCTC	0.0449
CGGACCAA	0.146
GGGAGTTA	0.0753
CCCTAAAC	0.00325
CGCGAGCA	-0.0177
ATAGAATG	0.0462
TGCTCGAA	-0.0246
GTTTCTGA	0.262
AGTCTACA	-0.18
AGGGGGCG	-0.279
CAACTGTG	0.036
CATTAGGC	-0.137
ATACTCAA	0.179
CATACGAC	-0.049
CTCCAACA	-0.121
AGTTCAAC	0.00606
CATGCCGA	-0.158
AGCGCTAA	-0.0129
CTCTATAC	-0.0596
ATTAGTGG	0.129
AAGTTAAG	-0.101
ACCGTTTA	0.142
CAATCCCC	-0.144

Sequence	PBM E-score
AGACCTAA	-0.017
TAATACGA	0.0734
TCTAGAAA	0.126
AAATACAG	0.175
GGACTCCC	-0.263
GATATGAC	-0.101
AATGTGGT	0.184
CGGACTCA	-0.0196
AATAACCC	0.466
TAACAAGA	0.0572
AATTCGCT	0.0676
ATGCAGTG	-0.0561
AGCGTGAG	-0.102
ACCTTCCA	0.186
AGGGCTTA	-0.176
ACGACCTA	0.207
ACGGCTGA	-0.13
AATCCTCC	-0.255
CCTTCTTC	-0.134
AGCGACAC	-0.0151
AACTGTCG	-0.142
CTATCTCC	-0.246
AGCCGACA	-0.131
TGAACGCA	0.0956
CGGTGATC	0.0109

Sequence	PBM E-score
AATCTTCG	0.0708
CAAGATAC	0.0232
CAGGTGGG	-0.0919
ATAAGCAT	-0.148
ATGTATAA	0.0262
ATGGAAGA	-0.0883
AAGCGATG	-0.131
TGGGCCAA	-0.124
GAAAACAA	0.19
GGAGATTA	-0.13
ATGTGGGC	-0.0665
CATTACGC	-0.0497
CGATAGGA	-0.0122
ACGGACGG	-0.0811
CACAGCTA	-0.186
AATCCCAC	0.0121
GCTCCAGA	-0.107
CCCCAGCC	0.0327
CGTCGCCC	-0.148
GAAGGGTA	0.421
GCCATGCC	-0.172
GCATTGGA	-0.174
ATACTAAT	0.0981
CATAATAC	0.151
TCAAAGAA	0.0332

Sequence	PBM E-score
CAGATATG	-0.147
ATTCTAGC	-0.0432
GTGGGTTA	0.404
AGGCTCAC	-0.25
ATACTTCG	-0.172
GACCCCCC	-0.236
CTTCGGAA	-0.0238
CACTTAAA	0.0388
AGCATTTC	-0.0474
TAAAAGCA	0.00902
AGAATAAT	0.0143
TCTTGGAA	0.089
AGGCCACC	0.0176
AAGCGCCG	-0.139
CCAACAAC	0.129
GATCTTGA	0.138
GGACGAAA	0.18
AAAGTTGA	-0.134
CCTCTACA	0.107
ATGTTTGG	0.0491
TAACAATA	0.198
CAGTGTAC	-0.0583
